Experimental data taken from US20220105150A1, “AMPHIPATHIC ALPHA-HELICAL ANTIMICROBIAL PEPTIDES TREAT INFECTIONS BY GRAM-NEGATIVE PATHOGENS” (priority 2019, published 2022).
For some of these results: Part of at least one peptide drawing is inferred or uncertain, most often the ends. For some of these results: At least one compound was matched to its structure with a doubt left. Square brackets hold non-standard residues; d marks the D form. Peptide text beside a SMILES is read from it. Dab = NCC[C@H](N)C(=O)O; Dap = NC[C@H](N)C(=O)O

System: Acinetobacter baumannii strains resistant to Polymyxin B and Colistin
Settings: geometric mean of MIC values from seven strains resistant to Polymyxin B and Colistin
Excerpt: The coupling procedure used 5 equivalents of Fmoc-D-amino acid or Fmoc-L-amino acid and HCTU (O-(1H-6-chlorobenzotriazole-1-yl)-1,1,3,3-tetramethyluronium hexafluorophosphate) and 6-Cl-HOBt (1-hydroxy-6-chloro-benztriazole) at 4.5 equivalents in DMF (Fisher Scientific, Denver, Colo.) and N-diisopropylethylamine (DIPEA) 10 equivalents (Oakwood Products, Inc., Estill, S.C.) in N-methyl-2-pyrrolidinone (NMP) (Fisher Scientific, Denver, Colo.) with the first and second couplings at room temperature for 30 min each. The deprotection procedure (removal of Fmoc protecting group) was carried out by treatment of the resin with 0.1 M HOBt (1-hydroxybenzotriazole) in DMF with 20% piperidine for 30 min. […] The resin was removed by filtration and peptide was precipitated with ice-cooled ethyl ether on ice for 15 min. Ether was decanted, the peptide was washed twice with ether and redissolved in acetonitrile/water (1:1, with 0.2% TFA) and the solution lyophilized to obtain the crude peptide. • Analytical and Preparative Purification by Reversed-Phase Chromatography: Analytical RP-HPLC: Column, Luna C18 (2), 250×4.6 mm I.D., 5 μm particle size, 100 Å pore size from Phenomenex (Torrance, Calif.). Run conditions: linear AB gradient (1% acetonitrile/min, starting from 2% acetonitrile) at a flow-rate of 1 ml/min, where eluent A is 0.2% aq. TFA and eluent B is 0.18% TFA in acetonitrile; temperature, 30° C. Preparative RP-HPLC: Peptides were dissolved in 0.2% aq. TFA containing 2% acetonitrile to a final concentration of 10 mg/ml. Following filtration through a 0.45 μm Millipore filter and subsequently through a 0.22 μm filter, the peptide solutions were loaded onto the column via multiple 20-ml injections into a 20-ml injection loop at a flow-rate of 10 ml/min. Column, Luna C18 (2), 250×30 mm I.D., 5 um particle size, 100 Å pore size from Phenomenex. Run conditions: 2% acetonitrile/min gradient up to an acetonitrile concentration 10% below that required to elute the peptide during analytical RP-HPLC, then shallow gradient elution (0.05% or 0.1% acetonitrile/min depending on the complexity of impurities near the product of interest on the analytical run of the crude peptide) at a flow-rate of 10 ml/min (same eluents as shown above for analytical RP-HPLC); at room temperature. • Temperature Profiling of Peptides on Reversed-phase HPLC to Measure Dimerization and Oligomerization: Purified peptides were analyzed on an Agilent 1200 series liquid chromatograph for temperature profiling using a Zorbax 300 SB-C8 column (150 mm×2.1 mm I.D.; 5 μm particle size, 300 Å pore size) from Agilent Technologies. […] Temperature profiling was carried out on peptide mixtures run at each temperature in 2° C. increments from 5° C. to 41° C. and 10° C. increments from 5° C. to 75° C. Twenty minutes was allowed between runs for temperature equilibration. • Characterization of Helical Structure: The mean residue molar ellipticities of peptides were determined by circular dichroism (CD) spectroscopy, using a Jasco J-815 spectropolarimeter (Jasco Inc. Easton, Md., USA) at 5° C. under KP buffer (50 mM NaH2PO4/Na2HPO4/100 mM KCl, pH 7.0) as well as in the presence of an α-helix inducing solvent, 2,2,2-trifluoroethanol, TFE, (50 mM NaH2PO4/Na2HPO4/100 mM KCl, pH 7.0 buffer/50% TFE). A 10-fold dilution of an approximately 500 μM stock solution of the peptide analogs was loaded into a 0.1 cm quartz cell and its ellipticity scanned from 195 to 250 nm.

Row | Structure (SMILES) | MICGM [µM]
1 | CC(=O)N[C@H](CCCCN)C(=O)N[C@H](CC(C)C)C(=O)N[C@@H](CCN)C(=O)N[C@H](CO)C(=O)N[C@H](CC(C)C)C(=O)N[C@H](CC(C)C)C(=O)N[C@@H](CCN)C(=O)N[C@@H](C(=O)N[C@H](CC(C)C)C(=O)N[C@H](CO)C(=O)N[C@H](C)C(=O)N[C@H](C)C(=O)N[C@H](CCCCN)C(=O)N[C@@H](CCN)C(=O)N[C@@H](CCN)C(=O)N[C@H](CCCCN)C(=O)N[C@H](CC(C)C)C(=O)N[C@H](C)C(=O)N[C@@H](C(=O)N[C@H](CC(C)C)C(=O)N[C@H](CC(C)C)C(=O)N[C@@H](CCN)C(=O)N[C@H](C)C(=O)N[C@H](CC(C)C)C(=O)N[C@H](CO)C(=O)N[C@@H](CCN)C(N)=O)[C@H](C)O)[C@H](C)O [D89(Lys^1-6 Dab-2), Ac-KL(L-Dab)SLL(L-Dab)TLSAAK(L-Dab)(L-Dab)KLATLL(L-Dab)ALS(L-Dab)-amide] (Ac-[dK][dL][Dab][dS][dL][dL][Dab][dT][dL][dS][dA][dA][dK][Dab][Dab][dK][dL][dA][dT][dL][dL][Dab][dA][dL][dS][Dab]-NH2) | 0.7
2 | CC(=O)N[C@H](CCCCN)C(=O)N[C@H](CC(C)C)C(=O)N[C@@H](CN)C(=O)N[C@H](CO)C(=O)N[C@H](CC(C)C)C(=O)N[C@H](CC(C)C)C(=O)N[C@@H](CN)C(=O)N[C@@H](C(=O)N[C@H](CC(C)C)C(=O)N[C@H](CO)C(=O)N[C@H](C)C(=O)N[C@H](C)C(=O)N[C@H](CCCCN)C(=O)N[C@@H](CN)C(=O)N[C@@H](CN)C(=O)N[C@H](CCCCN)C(=O)N[C@H](CC(C)C)C(=O)N[C@H](C)C(=O)N[C@@H](C(=O)N[C@H](CC(C)C)C(=O)N[C@H](CC(C)C)C(=O)N[C@@H](CN)C(=O)N[C@H](C)C(=O)N[C@H](CC(C)C)C(=O)N[C@H](CO)C(=O)N[C@@H](CN)C(N)=O)[C@H](C)O)[C@H](C)O [D106(Lys^1-6 Dap-2), Ac-KL(L-Dap)SLL(L-Dap)TLSAAK(L-Dap)(L-Dap)KLATLL(L-Dap)ALS(L-Dap)-amide] (Ac-[dK][dL][Dap][dS][dL][dL][Dap][dT][dL][dS][dA][dA][dK][Dap][Dap][dK][dL][dA][dT][dL][dL][Dap][dA][dL][dS][Dap]-NH2) | 0.8
3 | CC(=O)N[C@H](CCCCN)C(=O)N[C@H](CC(C)C)C(=O)N[C@H](CCCCN)C(=O)N[C@H](CO)C(=O)N[C@H](CC(C)C)C(=O)N[C@H](CC(C)C)C(=O)N[C@H](CCCCN)C(=O)N[C@@H](C(=O)N[C@H](CC(C)C)C(=O)N[C@H](CO)C(=O)N[C@H](C)C(=O)N[C@H](C)C(=O)N[C@H](CCCCN)C(=O)N[C@H](CCCCN)C(=O)N[C@H](CCCCN)C(=O)N[C@H](CCCCN)C(=O)N[C@H](CC(C)C)C(=O)N[C@H](C)C(=O)N[C@@H](C(=O)N[C@H](CC(C)C)C(=O)N[C@H](CC(C)C)C(=O)N[C@H](CCCCN)C(=O)N[C@H](C)C(=O)N[C@H](CC(C)C)C(=O)N[C@H](CO)C(=O)N[C@H](CO)C(N)=O)[C@H](C)O)[C@H](C)O [D103(Lys^1Ser^26-5 Lys-2), Ac-KL(Lys)SLL(Lys)TLSAAK(Lys)(Lys)KLATLL(Lys)ALS(Ser)-amide] (Ac-[dK][dL][dK][dS][dL][dL][dK][dT][dL][dS][dA][dA][dK][dK][dK][dK][dL][dA][dT][dL][dL][dK][dA][dL][dS][dS]-NH2) | 0.7
4 | CC(=O)N[C@H](CCCCN)C(=O)N[C@H](CC(C)C)C(=O)N[C@@H](CCN)C(=O)N[C@H](CO)C(=O)N[C@H](CC(C)C)C(=O)N[C@H](CC(C)C)C(=O)N[C@@H](CCN)C(=O)N[C@@H](C(=O)N[C@H](CC(C)C)C(=O)N[C@H](CO)C(=O)N[C@H](C)C(=O)N[C@H](C)C(=O)N[C@H](CCCCN)C(=O)N[C@@H](CCN)C(=O)N[C@@H](CCN)C(=O)N[C@H](CCCCN)C(=O)N[C@H](CC(C)C)C(=O)N[C@H](C)C(=O)N[C@@H](C(=O)N[C@H](CC(C)C)C(=O)N[C@H](CC(C)C)C(=O)N[C@@H](CCN)C(=O)N[C@H](C)C(=O)N[C@H](CC(C)C)C(=O)N[C@H](CO)C(=O)N[C@H](CO)C(N)=O)[C@H](C)O)[C@H](C)O [D104(Lys^1Ser^26-5 Dab-2), Ac-KL(L-Dab)SLL(L-Dab)TLSAAK(L-Dab)(L-Dab)KLATLL(L-Dab)ALS(Ser)-amide] (Ac-[dK][dL][Dab][dS][dL][dL][Dab][dT][dL][dS][dA][dA][dK][Dab][Dab][dK][dL][dA][dT][dL][dL][Dab][dA][dL][dS][dS]-NH2) | 0.8
5 | CC(=O)N[C@H](CCCCN)C(=O)N[C@H](CC(C)C)C(=O)N[C@H](CCCCN)C(=O)N[C@H](CO)C(=O)N[C@H](CC(C)C)C(=O)N[C@H](CC(C)C)C(=O)N[C@H](CCCCN)C(=O)N[C@@H](C(=O)N[C@H](CC(C)C)C(=O)N[C@H](CO)C(=O)N[C@H](C)C(=O)N[C@H](C)C(=O)N[C@H](CCCCN)C(=O)N[C@H](CCCCN)C(=O)N[C@H](CCCCN)C(=O)N[C@H](CCCCN)C(=O)N[C@H](CC(C)C)C(=O)N[C@H](C)C(=O)N[C@@H](C(=O)N[C@H](CC(C)C)C(=O)N[C@H](CC(C)C)C(=O)N[C@H](CCCCN)C(=O)N[C@H](C)C(=O)N[C@H](CC(C)C)C(=O)N[C@H](CO)C(=O)N[C@H](CCCCN)C(N)=O)[C@H](C)O)[C@H](C)O [D88(Lys^1-6 Lys-2), Ac-KL(Lys)SLL(Lys)TLSAAK(Lys)(Lys)KLATLL(Lys)ALS(Lys)-amide] (Ac-[dK][dL][dK][dS][dL][dL][dK][dT][dL][dS][dA][dA][dK][dK][dK][dK][dL][dA][dT][dL][dL][dK][dA][dL][dS][dK]-NH2) | 0.4

System: A. baumannii strains from JMI Laboratories
Settings: 20 A. baumannii isolates from JMI Laboratories; cited from earlier work

Row | Structure (SMILES) | number of resistant isolates out of the number of isolates screened
6 | C[C@H]1c2cccc(O)c2C(=O)C2=C(O)[C@]3(O)C(=O)C(C(N)=O)=C(O)[C@@H](N(C)C)[C@@H]3[C@@H](O)[C@@H]21 [Doxycycline] | 13/17
7 | CN(C)[C@@H]1C(O)=C(C(N)=O)C(=O)[C@@]2(O)C(O)=C3C(=O)c4c(O)cccc4[C@@](C)(O)[C@H]3C[C@@H]12 [Tetracycline] | 15/17
8 | C[C@@H](O)[C@H]1C(=O)N2C(C(=O)O)=C(SCCN=CN)C[C@H]12 [Imipenem] | 17/20
9 | CN(C)c1ccc(O)c2c1C[C@H]1C[C@H]3[C@H](N(C)C)C(O)=C(C(N)=O)C(=O)[C@@]3(O)C(O)=C1C2=O [Minocycline] | 13/17
10 | C[C@H]1COc2c(N3CCN(C)CC3)c(F)cc3c(=O)c(C(=O)O)cn1c23 [Levofloxacin] | 14/20
